Data: PubChem BioAssay AID504845 (National Center for Advancing Translational Sciences (NCATS), 2011)
The campaign covered roughly 390,000 compounds. About 150 (0.038%) were called active. The shares of active, inactive and inconclusive entries below differ from those in the screen. Calls come from the whole dose curve; as a rule, active = well fitted inhibition curve with a large enough effect; inconclusive = small, poorly fitted or top-dose-only effect; inactive = no such curve, though single readings can be large or run the other way. Potencies beside an inconclusive call are fits to weak or partial responses and may not hold up.

Each compound was assayed against Regulator of G-protein signaling 4 (Homo sapiens) (UniProt P49798) (assay: Inhibitors of Regulator of G Protein Signaling (RGS) 4: qHTS). Conditions: Transcreener GDP fluorescence polarization, RGS4-accelerated GTP hydrolysis; series mostly up to 114 µM.
UniProt P49798, sequence (P49798 whole entry, looked up): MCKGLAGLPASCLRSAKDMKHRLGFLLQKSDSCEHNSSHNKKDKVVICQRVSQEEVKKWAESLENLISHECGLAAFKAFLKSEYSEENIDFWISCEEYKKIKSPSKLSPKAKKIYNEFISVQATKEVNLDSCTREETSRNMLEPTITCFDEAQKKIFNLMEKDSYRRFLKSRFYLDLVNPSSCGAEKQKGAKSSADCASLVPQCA
In short: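 MLSMR compounds (23 nl, pin-transferred) preincubated 10 min at room temperature with a 500nM (2x) first reagent, then RGS4 at 900nM (2x) plus Transcreener GDP mix added; fluorescence polarization (620/688 nm) read before and after 90 min at 30 °C.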
% is set by controls: 0 for no effect and ±100 for the full control effect; potency is the fitted concentration of half-maximal effect; tags give direction and shape of the fitted curve.
Note: nearly all actives have a fitted effect of over 75% in size.

SMILES	activity change, negative = inhibition	Potency
COc1cc(OC)c(OC)cc1CN1CCCC(C(=O)c2ccc3c(c2)OCO3)C1 (stereo not drawn)	inactive: 5.13% [at 11.4 µM]	–
O=C(CCN1CCOCC1)c1ccc(Cl)cc1	–	inconclusive: 17.8 µM [inhibitor, full curve, poor fit]
Cc1cccc(-n2c(O)c(C=NCCCN3CCOCC3)c3ccccc3c2=O)c1	–	inactive
S=c1[nH]nc(-c2ccccn2)n1/N=C/c1ccc(Cl)c(Cl)c1	–	inconclusive: 89.1 µM [inhibitor, single point]
Cc1ccc(S(=O)(=O)/N=C(\N)Nc2nc(C)c3ccc(C)cc3n2)cc1	–	inactive
Cc1cccc(N2CCN(C(=O)c3ccc(NS(=O)(=O)c4ccc5[nH]c(=O)[nH]c5c4)cc3)CC2)c1C	–	inactive
CCOC(=O)C1Nc2ccc(C)cc2C2C=CCC12 (stereo not drawn)	–	inconclusive: 79.4 µM [inhibitor, single point]
O=C1N=c2ccccc2=C1c1c(O)[nH]c2c(C(F)(F)F)cccc12	–	inconclusive: 50.1 µM [inhibitor, partial curve, poor fit]
CCOc1ccccc1C(=O)NC1CC2CCCC(C1)N2Cc1nnnn1Cc1ccco1 (stereo not drawn)	–	inactive
COc1cccc(Cn2nnc(C(=O)Nc3cc(C)ccc3OC)c2N)c1	–	inconclusive: 35.5 µM [inhibitor, full curve, poor fit]
O=C1OC(/C(=C\Nc2ccc(F)cc2F)[N+](=O)[O-])c2ccccc21 (stereo not drawn)	–	inconclusive: 79.4 µM [inhibitor, partial curve, poor fit]
CCN(CC)c1nc(OCCNC(=O)Nc2ccccc2)nc(N(CC)CC)n1	–	inactive
Clc1cccc(-c2nn3c(Cn4cnc5ccccc54)nnc3s2)c1	–	inconclusive: 79.4 µM [inhibitor, partial curve, poor fit]
N#C/C(=C/c1ccc(N2CCOCC2)o1)c1ccc(Cl)cc1	–	inconclusive: 28.2 µM [inhibitor, full curve, poor fit]
CCn1nnnc1SCC(=O)c1ccc2c(c1)OCCO2	–	inactive
Fc1ccccc1/C=C1\CCCC2=C1NC(=S)NC2c1ccccc1F (stereo not drawn)	–	inconclusive: 100 µM [inhibitor, partial curve, poor fit]
Cc1nnc(SCC(=O)c2ccc(S(=O)(=O)N3CCOCC3)cc2)n1-c1ccccc1	–	inconclusive: 50.1 µM [inhibitor, partial curve, poor fit]
COc1ccc(-c2ccc(N(C)C)cc2)cc1[C@H]1[C@H]2C=CC[C@@H](C)[C@@H]2C(=O)N1Cc1ccccc1	–	inactive
CC(=O)Nc1cccc(C(=O)N/N=C/c2cccnc2)c1	–	inconclusive: 50.1 µM [inhibitor, partial curve, poor fit]
Cc1cc(C)c2c(c1)c1nnc(SCCN3CCOCC3)nc1n2C	–	inconclusive: 89.1 µM [inhibitor, single point]
CC(C)(C)c1cc(N)n(-c2ccc(C(=O)O)cc2)n1	–	inconclusive: 79.4 µM [inhibitor, partial curve, poor fit]

SMILES	activity change, negative = inhibition	Potency
COc1ccc(NC(=O)c2cncc(Br)c2)cc1S(=O)(=O)N1CCCCC1	–	inconclusive: 100 µM [inhibitor, single point]
Cc1cc2cc(C(c3nnnn3C3CCCC3)N(Cc3cccnc3)Cc3ccco3)c(=O)[nH]c2cc1C (stereo not drawn)	–	inconclusive: 70.8 µM [inhibitor, partial curve, poor fit]
CC(=O)Nc1ccc(S(=O)(=O)NC2(C(F)(F)F)NC(=O)N(CCc3ccc(F)cc3)C2=O)cc1 (stereo not drawn)	–	inactive
COc1ccccc1NC(=O)Cn1c(=O)n(CCCCCC(=O)NCc2ccccc2)c(=O)c2sccc21	–	inconclusive: 17.8 µM [inhibitor, full curve, poor fit]
C=CCSc1nc2sc3c(c2c(=O)n1CC)CCc1ccccc1-3	–	inconclusive: 79.4 µM [inhibitor, partial curve, poor fit]
COc1ccc(Cl)cc1C(=O)C1CCCN(Cc2cnc(N3CCOCC3)s2)C1 (stereo not drawn)	–	inconclusive: 17.8 µM [inhibitor, full curve, poor fit]
CCOC(=O)C1=C(COC(=O)C(C)(C)Oc2ccc(Cl)cc2)NC(=O)NC1C (stereo not drawn)	–	inconclusive: 100 µM [inhibitor, single point]
COC(=O)C1=C[C@@H](C(=O)OC)[C@@H]2C3=C(C(=O)C2(C)C)[C@H](c2ccccc2)[C@@H]2C(=O)N(c4ccccc4)C(=O)[C@@H]2[C@@H]3C1	–	inactive
COc1ccc(C(=O)N/N=C/c2ccc(OC)c(CSc3ccccn3)c2)cc1	–	inactive
CCOCCCn1c(=N)c(C(=O)NCC2CCCO2)cc2c(=O)n3cccc(C)c3nc21 (stereo not drawn)	–	inactive
O=C(Nc1ccccc1)c1ccc[nH]1	–	inconclusive: 50.1 µM [inhibitor, partial curve, poor fit]
O=c1cc(CO)oc(CN2CCCC2)c1O	–	inactive
S=C(NCc1ccco1)Nc1ccc(Br)cn1	–	inconclusive: 17.8 µM [inhibitor, full curve, poor fit]
FC(F)(F)c1ccc(N2CCN(c3ncnc4c3nnn4Cc3ccccc3)CC2)nc1	–	inactive
COC(=O)CCC(=O)OC1(C)C(=O)C2=CN(Cc3ccc(OC)cc3)C(c3ccc(OC)cc3)=CC2=C(Br)C1=O (stereo not drawn)	–	inconclusive: 50.1 µM [inhibitor, partial curve, poor fit]
CCCCCCCCCCCNC(=O)c1ccoc1C	–	inconclusive: 79.4 µM [inhibitor, partial curve, poor fit]
COC(=O)c1c(NC(=O)Cn2nc(C(F)F)cc2C(F)F)sc(C)c1C	–	inconclusive: 50.1 µM [inhibitor, partial curve, poor fit]
CCOC(=O)CCc1ccc(NC(=O)/C=C/c2ccc([N+](=O)[O-])o2)cc1	–	inactive
N#C/C(=C/c1cccc([N+](=O)[O-])c1)C(=O)Nc1ccccc1O	–	inactive
Cc1cc(OCc2cc(C(=O)N(C)CCc3cnn(C)c3)no2)cc(C)c1Cl	–	inactive
Cc1ccc(-c2nn(-c3ccccc3)cc2C=C2C(=O)CC(C)(C)CC2=O)cc1	–	inconclusive: 28.2 µM [inhibitor, full curve, poor fit]

SMILES	activity change, negative = inhibition	Potency
CCc1ccc(N(C)S(=O)(=O)c2ccc3[nH]cc(C(=O)NCC4CCCO4)c(=O)c3c2)cc1 (stereo not drawn)	–	inactive
CN(C)c1ccc(N=Nc2ccc(C(=O)O)cc2)cc1	–	inconclusive: 79.4 µM [inhibitor, partial curve, poor fit]
N=C1/C(=C/c2ccc(-c3cccc(C(=O)O)c3)o2)C(=O)N=C2SC=C(c3ccccc3)N12	–	inconclusive: 17.8 µM [inhibitor, full curve, poor fit]
O=C(O)[C@H]1CCCC[C@H]1C(=O)Nc1ccc(Nc2ccccc2)cc1	–	inconclusive: 100 µM [inhibitor, single point]
COCCCNC(=O)C[C@H]1C[C@H](C(=O)N2CCCCC2)[C@@]2(C)c3[nH]c4cc(-c5ccco5)ccc4c3CCN2C1=O	–	inconclusive: 89.1 µM [inhibitor, partial curve, poor fit]
CCC(=O)Nc1ccc(NC(=S)NC(=O)c2cc3ccccc3o2)cc1	–	inconclusive: 44.7 µM [inhibitor, partial curve, poor fit]
Cc1ccc(S/C(=N\S(=O)(=O)c2ccc(Cl)cc2)c2ccccc2)cc1	–	inconclusive: 50.1 µM [inhibitor, partial curve, poor fit]
Cc1cccc(Nc2ncnc3c2cnn3Cc2ccccc2)c1	–	inconclusive: 79.4 µM [inhibitor, partial curve, poor fit]
Cc1ccc(N(C(=O)CCl)C(C(=O)NC2CCCCC2)c2cccnc2)cc1C (stereo not drawn)	–	inactive
CCCCc1ccc(-c2csc(/C(C#N)=C/c3ccc(C)o3)n2)cc1	–	inconclusive: 50.1 µM [inhibitor, partial curve, poor fit]
COc1ccc2c(C)c(CCC(=O)NCCCN3CCCC3=O)c(=O)oc2c1C	–	inactive
Cc1ccc(NC(=O)CCC(=O)N/N=C/c2cccs2)cc1	–	inconclusive: 89.1 µM [inhibitor, partial curve, poor fit]
CC(C)NS(=O)(=O)c1ccc(OCC(=O)Nc2ccc(F)cc2)cc1	–	inconclusive: 56.2 µM [inhibitor, partial curve, poor fit]
COc1cc(/C=N\NC(=O)CNC(=O)c2cccc([N+](=O)[O-])c2)ccc1O	–	inconclusive: 89.1 µM [inhibitor, single point]
N=C1S/C(=C\c2ccc(-c3ccccc3C(=O)O)o2)C(=O)N1c1ccc2c(c1)OCO2	–	inconclusive: 89.1 µM [inhibitor, single point]
O=C1/C(=C/c2ccccc2)CN(C(=O)CCN2CCOCC2)C/C1=C\c1ccccc1	–	inconclusive: 79.4 µM [inhibitor, partial curve, poor fit]
O=C(C1CCCO1)N1CCN(C(=S)Nc2cccc(F)c2)CC1 (stereo not drawn)	–	inactive
CCc1ccc2nc(N3C(=O)C(O)=C(C(=O)c4ccco4)C3c3cccs3)sc2c1 (stereo not drawn)	–	inconclusive: 10 µM [inhibitor, full curve, poor fit]
CCNC(=O)CC1C(=O)N(c2ccc(F)cc2)C(=O)N1Cc1ccccn1 (stereo not drawn)	–	inconclusive: 70.8 µM [inhibitor, partial curve, poor fit]
COC(=O)COc1ccc(/C=N/NC(=O)c2ccc(N(Cc3ccccc3)S(C)(=O)=O)cc2)cc1	–	inactive
CC1(C)SCC(C(=O)O)NC1=O (stereo not drawn)	–	inconclusive: 79.4 µM [inhibitor, partial curve, poor fit]
